# Laboratory results reported in article PMC11995724, “Antibiotic target discovery by integrated phenotypic and activity-based profiling of electrophilic fragments” (Cell chemical biology, 2025).
# About 110 (3.4%) of roughly 3,200 compounds showed an effect of 50% or more. The list shows a part of the results.
# Tested on: T1, V. cholerae SAD30
# T1 construct: SAD30
# Set-up: species or system S. aureus MSSA476 (TSB) or V. cholerae SAD30 (LB); 384-well bacterial growth screen at 25 uM, OD600 relative to DMSO control
# Details: relative growth, OD600, LB; 25 µM; inhibitor
row,Structure (SMILES),% of control remaining [%]
1,"N#CC(=Cc1ccccc1)C(=O)NC1CCCCCCC1 [8-G17, 2-cyano-N-cyclooctyl-3-phenylprop-2-enamide]",67.3691
2,"N#CC(=Cc1cc(Cl)ccc1O)C(=O)Nc1cccc2ccccc12 [9-P17, 3-(5-chloro-2-hydroxyphenyl)-2-cyano-N-(naphthalen-1-yl)prop-2-enamide]",90.4827
3,"CC(C)N(C)S(=O)(=O)c1ccc(NC(=O)CCl)cc1 [4-K13, 2-chloro-N-{4-[methyl(propan-2-yl)sulfamoyl]phenyl}acetamide]",95.7516
4,"COc1ccc(-n2c(C)cc(C=C(C#N)C(=O)N(C)OC)c2C)cc1 [9-N16, 2-cyano-N-methoxy-3-[1-(4-methoxyphenyl)-2,5-dimethyl-1H-pyrrol-3-yl]-N-methylprop-2-enamide]",62.6105
5,"COc1ccc(N(C(=O)CCl)C2C=CS(=O)(=O)C2)cc1 (centres unmarked) [5-H14, 2-chloro-N-(1,1-dioxo-2,3-dihydro-1lambda6-thiophen-3-yl)-N-(4-methoxyphenyl)acetamide]",97.1735
6,"Cc1ccccc1NC(=O)C(C#N)=Cc1cccnc1 [8-D10, 2-cyano-N-(2-methylphenyl)-3-(pyridin-3-yl)prop-2-enamide]",73.8953
7,"O=C1C=CC(=O)N1c1ccc(SC(F)F)cc1 [10-A18, 1-{4-[(difluoromethyl)sulfanyl]phenyl}-2,5-dihydro-1H-pyrrole-2,5-dione]",28.9889
8,"CCc1nc2cc(CNC(=O)C(C)Cl)ccc2n1C1CC1 (centres unmarked) [6-N09, 2-chloro-N-[(1-cyclopropyl-2-ethyl-1H-1,3-benzodiazol-5-yl)methyl]propanamide]",87.5154
9,"O=C(CCl)N1N=C(c2cccs2)CC1c1ccccc1O (centres unmarked) [4-K20, 2-chloro-1-[5-(2-hydroxyphenyl)-3-(thiophen-2-yl)-4,5-dihydro-1H-pyrazol-1-yl]ethan-1-one]",107.138
10,"CC(Cl)C(=O)NC(C)c1nc(-c2cccnc2)cs1 (centres unmarked) [6-P07, 2-chloro-N-{1-[4-(pyridin-3-yl)-1,3-thiazol-2-yl]ethyl}propanamide]",94.0373
11,"N#CC(=Cc1cccc(O)c1)C(=O)Nc1ccccc1C(=O)O [9-O16, 2-[2-cyano-3-(3-hydroxyphenyl)prop-2-enamido]benzoic acid]",86.1319
12,"CCc1cc(SC#N)cc(C)c1NC(=O)CCl [4-M04, 2-chloro-N-[4-(cyanosulfanyl)-2-ethyl-6-methylphenyl]acetamide]",101.445
13,"CC(O)=C(C#N)C(=O)Nc1ccc(-c2ccccc2Cl)c(Cl)c1 [9-L22, 2-cyano-N-{2,2'-dichloro-[1,1'-biphenyl]-4-yl}-3-hydroxybut-2-enamide]",79.0619
14,"C=CC(=O)Nc1ccc(C(=O)N(C)C[C@@H]2CCC(=O)N2)cc1 [2-L18, N-methyl-N-{[(2S)-5-oxopyrrolidin-2-yl]methyl}-4-(prop-2-enamido)benzamide]",92.6662
15,"N#CC(=Cc1cccc(F)c1)C(=O)NCc1ccccc1 [9-K09, N-benzyl-2-cyano-3-(3-fluorophenyl)prop-2-enamide]",81.9171
16,"C=CC(=O)N1CCC(C(=O)NCc2nccn2-c2ccccc2)CC1 [3-B03, N-[(1-phenyl-1H-imidazol-2-yl)methyl]-1-(prop-2-enoyl)piperidine-4-carboxamide]",117.85
17,"O=C(CCl)Nc1ccc(OC(F)F)cc1 [4-J10, 2-chloro-N-[4-(difluoromethoxy)phenyl]acetamide]",103.86
18,"COC(=O)c1ccc(C=C(C#N)C(=O)NC(C)C)n1C [9-P12, methyl 5-{2-cyano-2-[(propan-2-yl)carbamoyl]eth-1-en-1-yl}-1-methyl-1H-pyrrole-2-carboxylate]",84.7723
19,"CC(C)NC(=O)C(C#N)=Cc1ccc2ccccc2c1 [9-C13, 2-cyano-3-(naphthalen-2-yl)-N-(propan-2-yl)prop-2-enamide]",81.3732
20,"C=CC(=O)N(CCC(N)=O)C1CCOc2ccccc21 (centres unmarked) [3-F13, N-(2-carbamoylethyl)-N-(3,4-dihydro-2H-1-benzopyran-4-yl)prop-2-enamide]",92.0897
21,"Cc1cnc(-c2cccc(NC(=O)C(C#N)=Cc3ccco3)c2)o1 [9-M18, 2-cyano-3-(furan-2-yl)-N-[3-(5-methyl-1,3-oxazol-2-yl)phenyl]prop-2-enamide]",75.119
22,"O=C(CCl)Nc1nc(-c2cccs2)cs1 [5-D18, 2-chloro-N-[4-(thiophen-2-yl)-1,3-thiazol-2-yl]acetamide]",71.1148

row,Structure (SMILES),% of control remaining [%]
1,"CC(Cl)C(=O)NCCc1nc2cc(F)ccc2s1 (centres unmarked) [7-P11, 2-chloro-N-[2-(5-fluoro-1,3-benzothiazol-2-yl)ethyl]propanamide]",81.4142
2,"C=CC(=O)NCCc1ccccc1OC [2-O03, N-[2-(2-methoxyphenyl)ethyl]prop-2-enamide]",104.246
3,"CCOC=C(C#N)C(=O)N1CCN(S(=O)(=O)c2cc[nH]n2)CC1 [9-D06, 3-ethoxy-2-[4-(1H-pyrazole-3-sulfonyl)piperazine-1-carbonyl]prop-2-enenitrile]",86.1319
4,"C=CC(=O)N1CCCC1c1cn(C)nc1C (centres unmarked) [3-M09, 1-[2-(1,3-dimethyl-1H-pyrazol-4-yl)pyrrolidin-1-yl]prop-2-en-1-one]",97.2064
5,"C=CC(=O)N(CC)CC(=O)N1CCN(c2ccsc2C#N)CC1 [3-L05, N-{2-[4-(2-cyanothiophen-3-yl)piperazin-1-yl]-2-oxoethyl}-N-ethylprop-2-enamide]",94.0305
6,"COc1ccc(C)cc1NC(=O)C(C)Cl (centres unmarked) [5-P22, 2-chloro-N-(2-methoxy-5-methylphenyl)propanamide]",100.2
7,"C=CC(=O)N(Cc1cnn(C2CCC2)c1)C1CCCc2occc21 (centres unmarked) [2-G07, N-[(1-cyclobutyl-1H-pyrazol-4-yl)methyl]-N-(4,5,6,7-tetrahydro-1-benzofuran-4-yl)prop-2-enamide]",83.8657
8,"CC(=Cc1ccccc1)C=C(C#N)C(=O)Nc1nccs1 [8-F08, 2-cyano-4-methyl-5-phenyl-N-(1,3-thiazol-2-yl)penta-2,4-dienamide]",73.3515
9,"CC(C)C(NC(=O)CCl)c1ccc(F)cc1 (centres unmarked) [4-E13, 2-chloro-N-[1-(4-fluorophenyl)-2-methylpropyl]acetamide]",96.0966
10,"Cn1cc(C=C(C#N)C(=O)NCCc2ccccc2)cn1 [8-L10, 2-cyano-3-(1-methyl-1H-pyrazol-4-yl)-N-(2-phenylethyl)prop-2-enamide]",69.5445
11,"Cc1ncccc1NC(=O)[C@H](C)NC(=O)C(C)Cl (stereo partly drawn) [6-D09, 2-chloro-N-[(1S)-1-[(2-methylpyridin-3-yl)carbamoyl]ethyl]propanamide]",88.1221
12,"N#CC(=Cc1cnn(-c2ccc(Cl)cc2)c1)C(=O)NC1CCCCC1 [8-A08, 3-[1-(4-chlorophenyl)-1H-pyrazol-4-yl]-2-cyano-N-cyclohexylprop-2-enamide]",90.2107
13,"CC(Cl)C(=O)Nc1ccc(C(C)(C)C)cc1 (centres unmarked) [4-G12, N-(4-tert-butylphenyl)-2-chloropropanamide]",80.0518
14,"COc1cc(C)c(C(C)NC(=O)CCl)cc1OC (centres unmarked) [6-M09, 2-chloro-N-[1-(4,5-dimethoxy-2-methylphenyl)ethyl]acetamide]",93.4307
15,"C=CC(=O)N1CCC(C(=O)NCc2ncnn2CC)CC1 [3-P03, N-[(1-ethyl-1H-1,2,4-triazol-5-yl)methyl]-1-(prop-2-enoyl)piperidine-4-carboxamide]",112.733
16,"COc1ccccc1NC(=O)C(C)Cl (centres unmarked) [5-L20, 2-chloro-N-(2-methoxyphenyl)propanamide]",97.5097
17,"O=C(CCl)Nc1ccccc1C(=O)c1ccccc1 [4-J06, N-(2-benzoylphenyl)-2-chloroacetamide]",93.8538
18,"C=CC(=O)NCCC(=O)N1CCC2(CC(=O)c3ccccc3O2)C1 (centres unmarked) [1-F12, N-(3-oxo-3-{4-oxo-3,4-dihydrospiro[1-benzopyran-2,3'-pyrrolidin]-1'-yl}propyl)prop-2-enamide]",101.325
19,"C=CC(=O)NCCc1cnc2c(Cl)cnn2c1 [1-L06, N-(2-{3-chloropyrazolo[1,5-a]pyrimidin-6-yl}ethyl)prop-2-enamide]",104.024
20,"C=CC(=O)NCCN1C(=O)SC(=Cc2ccc(Cl)cc2)C1=O [2-C05, N-(2-{5-[(4-chlorophenyl)methylidene]-2,4-dioxo-1,3-thiazolidin-3-yl}ethyl)prop-2-enamide]",84.792
21,"COc1ccc(O)c(C=C(C#N)C(=O)Nc2cccc3ccccc23)c1 [8-N14, 2-cyano-3-(2-hydroxy-5-methoxyphenyl)-N-(naphthalen-1-yl)prop-2-enamide]",69.2726
22,"C=CC(=O)N(CC)CC(=O)N1CCNC(=O)CC1c1ccccc1 (centres unmarked) [3-E21, N-ethyl-N-[2-oxo-2-(5-oxo-7-phenyl-1,4-diazepan-1-yl)ethyl]prop-2-enamide]",108.498
